Hit rate of the full screen: of about 310,000 compounds, about 11,000 (3.5%) were called active. The inconclusive results got no clear call from the source; some entries with a clear call stand among them for comparison. Calls come from the whole dose curve; as a rule, active = well fitted inhibition curve with a large enough effect; inconclusive = small, poorly fitted or top-dose-only effect, or effect the other way; inactive = flat fitted curve, though single readings scatter. No potency is given beside an inconclusive call; the fits are too rough.
assay: VP16 counterscreen qHTS for inhibitors of ROR gamma transcriptional activity; settings: Drosophila S2 Gal4-VP16 UAS-luciferase, luminescence, 20 h; series mostly up to 53.6 µM;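 note: Gal4-VP16 expression switched on by copper sulfate through the metallothionein promoter; nearly all actives have a fitted effect of over 50% in size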
Potency is the fitted concentration of half-maximal effect; tags give direction and shape of the fitted curve.

SMILES | Potency
Cc1nc2ncnn2c(N2CCN(S(=O)(=O)c3ccc(Br)cc3)CC2)c1C | inactive
CCOC(=O)c1cnc2c(OC)cccc2c1N1CCN(c2ccc(OC)cc2)CC1 | active: 2.24 µM
CSc1ccc(/C=N/NC(=O)c2sccc2C)cc1 | inconclusive [inhibitor, single point]
COc1ccc(/C=N/Nc2cc(N3CCCC3)nc(N3CCCC3)n2)cc1 | inactive
Cc1ccc(/C=N\n2c(-c3ccccc3)n[nH]c2=S)s1 | active: 8.91 µM
CCc1nnc(NC(=O)CSc2nnc(-c3ccccc3O)o2)s1 | active: 1.12 µM
CCOc1cccc2sc(N(CCCN(C)C)C(=O)c3ccc(S(=O)(=O)N(C)c4ccccc4)cc3)nc12 | inconclusive [inhibitor, single point]
Nc1sc2c(c1C(=O)NC1CCS(=O)(=O)C1)CCCC2 (stereo not given) | inactive
COc1cccc2cc(C(=O)NCc3ccc(Cl)cc3)c(=N)oc12 | inconclusive [inhibitor, partial curve, poor fit]
Cc1ccc(NC(=O)C(=Cc2ccc(C(=O)O)cc2)C(=O)Nc2ccc(C)cc2C)c(C)c1 | inconclusive [inhibitor, single point]
COc1ccccc1OCC(=O)N1CC2(C)CC1CC(C)(C)C2 (stereo not given) | inactive
Oc1ccc(/C=N/n2c(-c3ccco3)csc2=Nc2cccnc2)c(O)c1 | inactive
CCCCCCNC(=O)N[C@@H](C(=O)NCCC[C@H]1CN2C(=NC[C@@H]2Cc2ccccc2)N1CCc1cccc(OC)c1)C(C)C | inactive
O=C(Nc1ccc(N2CCOCC2)c(Cl)c1)c1ccccc1F | inconclusive [inhibitor, single point]
COc1cc2c(Nc3ccc(Br)cc3F)ncnc2cc1OCC1CCN(C)CC1 | inconclusive [activator, single point]
O=C(CN1C(=O)C2CCCN2c2ncc(Cl)cc21)NCc1ccc2c(c1)OCO2 (stereo not given) | inconclusive [inhibitor, single point]
Cc1ccc(OC(=O)C23CC4CC(CC(C4)C2)C3)c(C)n1 | inconclusive [activator, single point]
O=C1c2ccccc2C(Nc2ccc3c(c2)OCCO3)N1Cc1ccco1 (stereo not given) | inconclusive [inhibitor, single point]
O=C(CSc1cccc2cccnc12)Nc1ccc(S(=O)(=O)N2CCOCC2)cc1 | inconclusive [inhibitor, single point]
CC1(C)CC(=O)c2c(nc3ccccc3c2N)C1 | inconclusive [inhibitor, partial curve]
Cc1ccccc1-n1c([C@@H]2C[C@H]2c2ccccc2)n[nH]c1=S | inconclusive [inhibitor, partial curve]
CC(=O)c1ccc(N2CCN(Cc3nc(Cc4ccccc4)no3)CC2)cc1 | inconclusive [inhibitor, full curve, poor fit]
O=C(CP(=O)(c1ccccc1)c1ccccc1)N/N=C/c1cc(Br)cc(Br)c1O | active: 2.51 µM

SMILES | Potency
Cn1c(N)c(C(=O)CSc2ccc3c(c2)OCCO3)c(=O)n(C)c1=O | inconclusive [inhibitor, single point]
Nc1nc2sc3c(c2cc1C(=O)NCC(=O)O)CCCC3 | inconclusive [inhibitor, partial curve]
CN(C)c1nc(N2CCN(c3ccc(F)cc3)CC2)c(C#N)c(=O)o1 | inconclusive [inhibitor, full curve, poor fit]
COc1ccc2c(c1OC)C(=O)OC2Nc1nc(-c2ccccc2)cs1 (stereo not given) | inconclusive [inhibitor, single point]
O=C(O)/C=C/C(=O)Nc1ccccc1-c1ccccc1NC(=O)/C=C/C(=O)O | inconclusive [inhibitor, single point]
O=C(Nc1ccccc1)N(C1=NCCC1)c1ccccc1 | inactive
O=C1CCCN1c1ncc(S(=O)(=O)c2ccc([N+](=O)[O-])cc2)s1 | inconclusive [activator, single point]
Cc1cc(C)nc(NC(=S)Nc2ccc(Br)cc2Cl)c1 | inconclusive [inhibitor, full curve, poor fit]
Cc1[nH]n(-c2ncc(-c3ccc(Cl)cc3)s2)c(=O)c1C(c1ccc(Cl)cc1)C(C#N)C#N (stereo not given) | inconclusive [inhibitor, single point]
Cc1nc(N2CCCCC2)c2c(C)c(C(=O)Nc3cccc(C(F)(F)F)c3)sc2n1 | inconclusive [inhibitor, single point]
COc1ccc(C(=O)c2c(C)c3ccccc3n2CC(O)CNC(C)C)cc1 (stereo not given) | active: 20 µM
Cc1cc(O)ccc1N/C=C1\CCCC1=O | inconclusive [inhibitor, single point]
O=C(Nc1nccs1)c1ccc(-c2ccc(Cl)cc2Cl)o1 | active: 5.01 µM
COC(=O)c1ccc(OCC(=O)c2ccc(C)c(C)c2)cc1 | inconclusive [inhibitor, single point]
O=C(c1ccc(Cl)cc1)C(CN1CCCCC1)c1ccccc1 (stereo not given) | inconclusive [inhibitor, single point]
CN(C)C(=O)CCC(=O)N1CCCCC1C(=O)Nc1ccc(Oc2ccccc2F)cc1 (stereo not given) | inactive
CCC(=O)Nc1ccc(NC(=O)c2ccco2)c(OC)c1 | inactive
COCCn1c(C)cc(C(=O)COc2ccc(C)nc2[N+](=O)[O-])c1C | inactive
Cc1cccc(N2CCN(C(=O)c3ccc(CS(=O)(=O)c4ccccc4C)o3)CC2C)c1 (stereo not given) | inconclusive [inhibitor, single point]
O=C(c1cc(COc2cccc3cnccc23)on1)N1CCCC(CCCO)C1 (stereo not given) | active: 2.82 µM
O=C1S/C(=C/c2ccccc2F)C(=O)N1CCN=C1NS(=O)(=O)c2ccccc21 | inconclusive [inhibitor, single point]
CCOC(=O)C(=O)Nc1nc(-c2ccc3c(c2)CCN3C(=O)C2CC2)c(C)s1 | inconclusive [inhibitor, single point]
